# According to PubChem BioAssay (NCATS):
# Several values for one entry are separate records, joined by “and”; a condition that tells them apart may be missing. Equal entries are not always repeated. Inconclusive means that the source gave no clear call. Such entries were picked first, then a sample of the others. A potency beside an inconclusive call is a rough fit, not a confirmed value. The source holds several records for some structures; these can differ, active in one and inactive in another. Activity calls are given as the source filed them. Calls follow the shape of the dose curve; as a rule, active = well fitted curve in the direction sought with a large enough effect; inconclusive = small, poorly fitted or top-dose-only effect, or another doubt; inactive = no such curve, though single readings can be large; an effect the other way counts as inactive or inconclusive.
# Legend:
# HEK293 = test: Cytotoxic Profiling of Annotated Libraries Using Quantitative High-Throughput Screening (AID 1296008); details: Five cell lines viability, CellTiter-Glo ATP luminescence, 48-72 h; max response: stronger effect = lower value; also: nearly all actives have a fitted effect of over 60% in size
# Outline: (§1)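 Cytotoxicity was measured as CellTiter-Glo ATP luminescence, read after 10 min at room temperature. Compound treatment of the cells lasted 48 or 72 hr at 37 degrees Celsius in a qHTS format.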
# HaCat = test: as above; details: Five cell lines viability, CellTiter-Glo ATP luminescence, 48-72 h; max response: stronger effect = lower value
# Outline: as §1
# OV90 = test: Primary qHTS to identify gynecologic anti-cancer compounds using libraries of approved drugs and bioactive compounds (AID 1345084); details: Gynecologic cancer cell panel viability, ATPlite luminescence, 48 h; series mostly up to 57.5 µM; also: nearly all actives have a fitted effect of over 55% in size
# Outline: (§2)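 Five-concentration response, 48 h; readout is ATP-driven luciferase luminescence.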
# SKOV3 = test: as above; details: Gynecologic cancer cell panel viability, ATPlite luminescence, 48 h; series mostly up to 57.5 µM
# Outline: as §2
# MKL-2 = test: qHTS assay to identify novel small-molecules to repurpose for Merkel cell carcinoma treatment (AID 1296009); details: MCC and control cell lines, CellTiter-Glo viability, 72 h; activity change, negative = cytotoxicity: at 46 µM (top of the series); also: nearly all actives have a fitted effect of over 60% in size
# Outline: (§3)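 Cell viability measured by CellTiter-Glo following 72 hr compound treatment at 37 degree celsius, with NPC and MIPE libraries tested in 8- and 11-point concentration series.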
# UISO = test: as above; details: MCC and control cell lines, CellTiter-Glo viability, 72 h; series mostly up to 46 µM
# Outline: as §3
# WaGa = test: as above; details: MCC and control cell lines, CellTiter-Glo viability, 72 h; series mostly up to 46 µM
# Outline: as §3
# Hek293T = test: Primary qHTS to identify gynecologic anti-cancer compounds using libraries of approved drugs and bioactive compounds (AID 1345084); details: Gynecologic cancer cell panel viability, ATPlite luminescence, 48 h, control line for the selectivity index; series mostly up to 57.5 µM; also: nearly all actives have a fitted effect of over 55% in size
# Outline: as §2
# KB-3-1 = test: Cytotoxic Profiling of Annotated Libraries Using Quantitative High-Throughput Screening (AID 1296008); details: Five cell lines viability, CellTiter-Glo ATP luminescence, 48-72 h; max response: stronger effect = lower value; also: nearly all actives have a fitted effect of over 60% in size
# Outline: as §1
# MCC-13 = test: qHTS assay to identify novel small-molecules to repurpose for Merkel cell carcinoma treatment (AID 1296009); details: MCC and control cell lines, CellTiter-Glo viability, 72 h; series mostly up to 46 µM; also: nearly all actives have a fitted effect of over 60% in size
# Outline: as §3
# MKL-1 = test: as above; details: MCC and control cell lines, CellTiter-Glo viability, 72 h; series mostly up to 46 µM
# Outline: as §3
# JEG-3 = test: Primary qHTS to identify gynecologic anti-cancer compounds using libraries of approved drugs and bioactive compounds (AID 1345084); details: Gynecologic cancer cell panel viability, ATPlite luminescence, 48 h; series mostly up to 57.5 µM; also: nearly all actives have a fitted effect of over 55% in size
# Outline: as §2
# NIH3T3 = test: Cytotoxic Profiling of Annotated Libraries Using Quantitative High-Throughput Screening (AID 1296008); details: Five cell lines viability, CellTiter-Glo ATP luminescence, 48-72 h; max response: stronger effect = lower value; also: nearly all actives have a fitted effect of over 60% in size
# Outline: as §1
# CAOV3 = test: Primary qHTS to identify gynecologic anti-cancer compounds using libraries of approved drugs and bioactive compounds (AID 1345084); details: Gynecologic cancer cell panel viability, ATPlite luminescence, 48 h; series mostly up to 57.5 µM; also: nearly all actives have a fitted effect of over 55% in size
# Outline: as §2
# CASKI = test: as above; details: Gynecologic cancer cell panel viability, ATPlite luminescence, 48 h; series mostly up to 57.5 µM
# Outline: as §2
# PA-1 = test: as above; details: Gynecologic cancer cell panel viability, ATPlite luminescence, 48 h; series mostly up to 57.5 µM
# Outline: as §2
# HeLa = test: as above; details: Gynecologic cancer cell panel viability, ATPlite luminescence, 48 h; series mostly up to 57.5 µM
# Outline: as §2
# C33A = test: as above; details: Gynecologic cancer cell panel viability, ATPlite luminescence, 48 h; series mostly up to 57.5 µM
# Outline: as §2
# Es-2 = test: as above; details: Gynecologic cancer cell panel viability, ATPlite luminescence, 48 h; series mostly up to 57.5 µM
# Outline: as §2
# % is scaled to controls: 0 for no effect and ±100 for the full control effect; potency is read from the fitted curve at half-maximal effect; tags tell the direction and shape of the fitted curve.
smiles,measurement,setting,value
Cc1c(C(=O)O)c(O)cc2c1C(=O)c1c(O)c([C@@H]3O[C@H](CO)[C@@H](O)[C@H](O)[C@H]3O)c(O)c(O)c1C2=O,max response,HEK293,inactive: -35.5%
same,Potency,HaCat,"inconclusive: 33.5 µM [inhibitor, single point]"
same,Potency,OV90,"inconclusive: 10 µM [cytotoxic, partial curve]"
same,Potency,SKOV3,inactive
COc1ccc(-c2oc3cc(OC)ccc3c2C(=O)c2ccc(C#N)cc2)cc1,outcome,HEK293,inactive
same,outcome,HaCat,inactive
same,Potency,MKL-2,"inconclusive: 8.33 µM [inhibitor, partial curve, poor fit]"
same,Potency,UISO,inactive
CS(=O)c1ccc(-c2nc(-c3ccc(F)cc3)c(-c3ccncc3)[nH]2)cc1 (stereo unspecified),Potency,HEK293,active: 8.55 µM
same,Potency,HaCat,"inconclusive: 67.9 µM [inhibitor, single point]"
same,Potency,WaGa,"inconclusive: 27 µM [inhibitor, partial curve]"
same,Potency,Hek293T,inactive
same,Potency,SKOV3,inactive
CC[C@]1(O)C[C@@H]2CN(CCc3c([nH]c4ccccc34)[C@@](C(=O)OC)(c3cc4c(cc3OC)N(C=O)[C@@H]3C45CCN4CC=C[C@](CC)([C@H]45)[C@@H](OC(C)=O)[C@]3(O)C(=O)OC)C2)C1 (stereo partly specified),Potency,HEK293,"inconclusive: 20.9 µM [inhibitor, partial curve]"
same,Potency,HaCat,"inconclusive: 37.2 µM [inhibitor, single point]"
same,Potency,KB-3-1,"inconclusive: 29.6 µM [inhibitor, single point]"
same,Potency,MKL-2,"inconclusive: 11.8 µM [inhibitor, partial curve]"
same,Potency,UISO,"inconclusive: 4.69 µM [inhibitor, full curve]"
same,Potency,WaGa,"inconclusive: 6.62 µM [inhibitor, full curve]"
COc1cc(NC(C)CCCN)c2ncccc2c1 (stereo unspecified),Potency,HEK293,"inconclusive: 29.9 µM [inhibitor, single point]"
same,outcome,HaCat,inactive
same,Potency,MCC-13,active: 16.8 µM
same,Potency,MKL-1,active: 2.99 µM
same,Potency,MKL-2,active: 4.22 µM
same,Potency,UISO,active: 3.35 µM
same,Potency,WaGa,active: 3.76 µM
same,Potency,JEG-3,"inconclusive: 39.8 µM [cytotoxic, single point]"
same,Potency,SKOV3,inactive
CN1CCN(C2=Nc3cc(Cl)ccc3Nc3ccccc32)CC1,Potency,HEK293,"inconclusive: 33.2 µM [inhibitor, single point] and active: 13.3 µM"
same,Potency,HaCat,"inconclusive: 21.1 µM [inhibitor, single point]"
same,Potency,NIH3T3,"inconclusive: 8.41 µM [inhibitor, partial curve]"
same,Potency,MKL-2,"inconclusive: 33.5 µM [inhibitor, single point]"
same,Potency,UISO,"inconclusive: 33.5 µM [inhibitor, single point]"
same,Potency,WaGa,"inconclusive: 33.5 µM [inhibitor, single point]"
same,Potency,CAOV3,"inconclusive: 35.5 µM [cytotoxic, single point]"
same,Potency,CASKI,inactive
same,Potency,OV90,"inconclusive: 39.8 µM [cytotoxic, single point]"
same,Potency,PA-1,"inconclusive: 10 µM [cytotoxic, partial curve]"
same,Potency,SKOV3,active: 31.6 µM
O=S1(=O)c2cccc3cccc(c23)N1CCCN1CCN(c2ccc(F)cc2)CC1,Potency,HEK293,"inconclusive: 26.6 µM [inhibitor, single point]"
same,max response,HaCat,inactive: -0.344%
same,Potency,MKL-2,"inconclusive: 33.5 µM [inhibitor, single point]"
same,Potency,WaGa,"inconclusive: 33.5 µM [inhibitor, single point]"
same,Potency,CAOV3,inactive
same,Potency,JEG-3,inactive
C[C@H]1C[C@H]2[C@@H]3CCC4=CC(=O)C=C[C@]4(C)[C@@]3(Cl)[C@@H](O)C[C@]2(C)[C@@]1(O)C(=O)CO,Potency,HEK293,"inconclusive: 26.6 µM [inhibitor, single point]"
same,max response,HaCat,inactive: -6.93%
same,Potency,MKL-2,"inconclusive: 29.9 µM [inhibitor, single point]"
same,Potency,CAOV3,"inconclusive: 39.8 µM [cytotoxic, single point]"
c1ccc2occc2c1,max response,HEK293,inactive: -7.13%
same,Potency,HaCat,"inconclusive: 6.11 µM [inhibitor, partial curve, poor fit]"
same,max response,KB-3-1,inactive: -9.71%
same,Potency,MKL-1,inactive
same,Potency,CAOV3,inactive
same,Potency,SKOV3,"inconclusive: 89.1 µM [cytotoxic, single point]"
COCCn1c2c([n+](Cc3cnccn3)c1C)C(=O)c1ccccc1C2=O,Potency,HEK293,active: 0.0166 µM
same,Potency,KB-3-1,active: 0.0148 µM
same,Potency,NIH3T3,active: 16.6 µM
same,Potency,MCC-13,active: 0.59 µM
same,Potency,MKL-1,active: 0.0023 µM
same,Potency,WaGa,active: 0.0132 µM
Cc1c(OCC(F)(F)F)ccnc1CS(=O)c1nc2ccccc2[nH]1 (stereo unspecified),Potency,HEK293,"inconclusive: 29.9 µM [inhibitor, single point]"
same,Potency,HaCat,"inconclusive: 33.5 µM [inhibitor, single point]"
same,Potency,MKL-2,"inconclusive: 13.2 µM [inhibitor, partial curve]"
same,Potency,UISO,inactive
same,Potency,WaGa,inactive
Cc1cc(OCCCc2c(C(=O)O)n(Cc3cccnc3)c3c(-c4c(COc5ccc(N6CCN([S+](C)(=O)[O-])CC6)cc5)nn(C)c4C)cccc23)cc(C)c1Cl,Potency,HEK293,"inconclusive: 29.6 µM [inhibitor, single point]"
same,Potency,KB-3-1,"inconclusive: 33.2 µM [inhibitor, single point]"
N#CC(=C(N)Sc1ccccc1N)C(C#N)=C(N)Sc1ccccc1N,Potency,HEK293,"inconclusive: 37.2 µM [inhibitor, single point]"
same,Potency,HaCat,"inconclusive: 14.8 µM [inhibitor, partial curve]"
same,Potency,KB-3-1,"inconclusive: 20.9 µM [inhibitor, partial curve]"
same,Potency,UISO,active: 1.05 µM
O=c1c(-c2ccc(O)cc2)coc2cc(O)cc(O)c12,Potency,HEK293,"inconclusive: 26.6 µM [inhibitor, partial curve, poor fit]"
same,max response,KB-3-1,inactive: 32.1%
same,outcome,KB-3-1,inactive
same,Potency,CASKI,"inconclusive: 2.24 µM [cytotoxic, full curve, poor fit]"
same,Potency,HeLa,"inconclusive: 39.8 µM [cytotoxic, single point]"
same,Potency,JEG-3,"inconclusive: 3.98 µM [cytotoxic, full curve]"
same,Potency,PA-1,"inconclusive: 39.8 µM [cytotoxic, single point]"
same,Potency,SKOV3,"inconclusive: 39.8 µM [cytotoxic, single point]"
CC1(C)CCC2=C(O1)c1ccccc1C(=O)C2=O,Potency,HEK293,"inconclusive: 29.6 µM [inhibitor, single point]"
same,max response,KB-3-1,inactive: 7.27%
same,Potency,NIH3T3,"inconclusive: 37.2 µM [inhibitor, single point]"
same,Potency,MCC-13,"inconclusive: 18.7 µM [inhibitor, partial curve]"
same,Potency,MKL-1,"inconclusive: 33.2 µM [inhibitor, single point]"
same,Potency,UISO,"inconclusive: 33.2 µM [inhibitor, single point]"
same,Potency,WaGa,active: 26.4 µM
CN(C(Cc1ccc(OS(=O)(=O)c2cccc3cnccc23)cc1)C(=O)N1CCN(c2ccccc2)CC1)S(=O)(=O)c1cccc2cnccc12 (stereo unspecified),Potency,HEK293,active: 5.26 µM
same,Potency,HaCat,"inconclusive: 29.6 µM [inhibitor, single point]"
same,Potency,MKL-2,"inconclusive: 18.7 µM [inhibitor, partial curve, poor fit]"
same,Potency,UISO,active: 7.43 µM
same,Potency,WaGa,"inconclusive: 16.6 µM [inhibitor, partial curve]"
CC1=C[C@@H]2[C@@H]([C@@H](O)C[C@@]3(C)[C@H]2C[C@@H](C)[C@]3(O)C(=O)CO)[C@@]2(C)Cc3cnn(-c4ccccc4)c3C=C12,Potency,HEK293,active: 10.3 µM
same,Potency,HaCat,active: 20.6 µM
same,Potency,NIH3T3,active: 14.6 µM
same,Potency,C33A,"inconclusive: 31.6 µM [cytotoxic, single point]"
same,Potency,CAOV3,"inconclusive: 15.8 µM [cytotoxic, partial curve, poor fit]"
same,Potency,Es-2,"inconclusive: 39.8 µM [cytotoxic, single point]"
same,Potency,HeLa,"inconclusive: 39.8 µM [cytotoxic, single point]"
same,Potency,Hek293T,"inconclusive: 35.5 µM [cytotoxic, partial curve, poor fit]"
same,Potency,JEG-3,"inconclusive: 39.8 µM [cytotoxic, single point]"
same,Potency,OV90,"inconclusive: 28.2 µM [cytotoxic, partial curve, poor fit]"
same,Potency,PA-1,"inconclusive: 28.2 µM [cytotoxic, single point]"
same,Potency,SKOV3,"inconclusive: 11.2 µM [cytotoxic, partial curve, poor fit]"
CS(=O)(=O)c1ccc(-c2cn3ccccc3n2)cc1,Potency,HEK293,"inconclusive: 29.9 µM [inhibitor, single point]"
same,Potency,HaCat,"inconclusive: 23.7 µM [inhibitor, single point]"
same,Potency,NIH3T3,"inconclusive: 33.5 µM [inhibitor, single point]"
same,Potency,MKL-1,"inconclusive: 10.6 µM [inhibitor, partial curve]"
same,Potency,UISO,"inconclusive: 15 µM [inhibitor, single point]"
same,Potency,C33A,active: 10 µM
same,Potency,CAOV3,active: 10 µM
same,Potency,CASKI,active: 6.31 µM
same,Potency,Es-2,"inconclusive: 12.6 µM [cytotoxic, partial curve, poor fit]"
same,Potency,Hek293T,active: 17.8 µM
same,Potency,JEG-3,active: 7.08 µM
same,Potency,OV90,active: 7.94 µM
same,Potency,PA-1,active: 17.8 µM
same,Potency,SKOV3,active: 8.91 µM
Nc1nc2ccc([N+](=O)[O-])cc2s1,Potency,HEK293,"inconclusive: 68.6 µM [inhibitor, partial curve, poor fit]"
same,Potency,HaCat,active: 27.3 µM
same,Potency,UISO,"inconclusive: 30.6 µM [inhibitor, partial curve, poor fit]"
same,Potency,WaGa,"inconclusive: 54.5 µM [inhibitor, single point]"
same,Potency,CAOV3,"inconclusive: 44.7 µM [cytotoxic, single point]"
same,Potency,HeLa,"inconclusive: 28.2 µM [cytotoxic, partial curve]"
same,Potency,Hek293T,"inconclusive: 89.1 µM [cytotoxic, single point]"
same,Potency,SKOV3,"inconclusive: 35.5 µM [cytotoxic, single point]"
